# Measurements taken from article PMC4336329 (PLoS ONE, 2015).
# The whole screen tested about 310,000 compounds, of which about 2,200 (0.71%) showed an effect of 50% or more. The effect is printed as a negative number. Some of the results follow.
# Target: human ether-à-go-go-related gene (hERG) potassium channel (human, UniProt Q12809)
# Assay: primary screen, population patch clamp on CHO cells stably expressing hERG
# Sequence of human ether-à-go-go-related gene (hERG) potassium channel (Q12809 whole entry, looked up): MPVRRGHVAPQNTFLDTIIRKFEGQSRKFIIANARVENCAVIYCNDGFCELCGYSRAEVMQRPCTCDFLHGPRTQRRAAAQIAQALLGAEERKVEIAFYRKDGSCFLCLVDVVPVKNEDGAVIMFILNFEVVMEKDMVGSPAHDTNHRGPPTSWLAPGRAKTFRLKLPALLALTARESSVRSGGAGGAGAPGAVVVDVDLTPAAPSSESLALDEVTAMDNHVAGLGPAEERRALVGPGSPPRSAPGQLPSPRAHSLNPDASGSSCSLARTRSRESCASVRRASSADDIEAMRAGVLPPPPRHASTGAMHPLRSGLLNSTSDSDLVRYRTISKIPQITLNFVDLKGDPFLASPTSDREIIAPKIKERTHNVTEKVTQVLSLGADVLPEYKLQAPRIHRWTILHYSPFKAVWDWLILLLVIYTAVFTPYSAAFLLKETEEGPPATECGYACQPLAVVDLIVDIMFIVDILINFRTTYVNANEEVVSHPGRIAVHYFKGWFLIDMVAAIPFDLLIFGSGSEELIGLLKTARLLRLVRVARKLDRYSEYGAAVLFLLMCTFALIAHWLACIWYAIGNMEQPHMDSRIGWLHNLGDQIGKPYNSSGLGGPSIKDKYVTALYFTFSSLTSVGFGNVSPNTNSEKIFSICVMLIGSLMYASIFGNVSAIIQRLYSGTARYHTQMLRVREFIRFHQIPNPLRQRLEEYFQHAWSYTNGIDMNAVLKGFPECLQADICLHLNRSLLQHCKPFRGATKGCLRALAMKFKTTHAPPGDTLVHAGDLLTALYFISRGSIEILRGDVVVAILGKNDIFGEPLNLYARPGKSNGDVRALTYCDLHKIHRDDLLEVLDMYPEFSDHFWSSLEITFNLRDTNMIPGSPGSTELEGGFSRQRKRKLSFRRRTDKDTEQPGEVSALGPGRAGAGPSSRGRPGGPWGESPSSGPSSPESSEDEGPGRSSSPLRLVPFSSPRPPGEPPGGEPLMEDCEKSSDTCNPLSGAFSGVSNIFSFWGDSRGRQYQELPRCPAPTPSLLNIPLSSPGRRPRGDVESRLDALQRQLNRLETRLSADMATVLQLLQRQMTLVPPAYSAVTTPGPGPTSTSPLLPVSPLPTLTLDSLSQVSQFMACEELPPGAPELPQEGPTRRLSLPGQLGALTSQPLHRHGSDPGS
row,SMILES,"hERG current change (%, negative = inhibition) at 1uM"
1,Cc1cn(C2OC[C@@H](O)[C@@H]2CO)c(=O)[nH]c1=O (some centres unmarked),3.67%
2,COc1cc(C(=O)N[C@@H](Cc2c[nH]c3ccccc23)C(=O)O)cc(OC)c1OC,-3.01%
3,CCc1ccc(NC(=O)[C@H](C)NC(=O)C2CCN(C(=O)[C@@H](N)CC(C)C)CC2)cc1.Cl,12%
4,CSc1cccc(NC(=O)Nc2ccc(Cl)cc2)c1,-4.3%
5,O=C(NCc1ccc(F)cc1)C1C2C=CC3(CN(Cc4cccnc4)C(=O)C13)O2 (centres unmarked),4.52%
6,CNS(=O)(=O)c1cccc(C(=O)NCC2CCCCC2)c1,15.5%
7,Cc1cc(=O)oc2cc(OCC(=O)N3CCN(c4ccccc4)CC3)c(Cl)cc12,9.94%
8,COc1ccc(C2NC(=O)NC(C)=C2[N+](=O)[O-])cc1OC (centres unmarked),3.92%
9,Nc1nc2ccc([N+](=O)[O-])c(N)c2s1,0.509%
10,O=C(O)c1cn2c3c(ccc(Cl)c3c1=O)OCC2,9.87%
11,O=C(Cc1cccc2ccccc12)Nc1ccccc1Br,16.3%
12,O=C(COc1ccc(S(=O)(=O)N2CCOCC2)cc1Cl)NCc1ccccn1,17.1%
13,C#CCOCCOCCOCCNc1nc(N2CCN(C(=O)CCCCCCCCCCNC(=O)[C@@H](CCC(=O)O)n3cc(CCCCCN)nn3)CC2)nc(N2CCN(C(=O)CCCCCCCCCCNC(=O)[C@@H](CCC(=O)O)n3cc(CCCCCN)nn3)CC2)n1,-7.24%
14,COc1ccc2ccccc2c1CN1CCN(C)CC1,3.67%
15,CN(C)c1ccc(NC(=O)CN2C(=O)CC(c3ccccc3)=Nc3ccccc32)cc1,7.35%
16,Cc1ccc(S(=O)(=O)Nc2ccc(Br)cc2/C=N/n2cnnc2)cc1,11.1%
17,Cc1cc(NS(=O)(=O)c2ccc(NC(=O)Nc3cccc(C(F)(F)F)c3)cc2)no1,12.6%
18,O=C(Cc1cc(C(=O)O)c2ccccc2n1)Nc1ccccc1,17.5%
19,Cc1ccc(CCCNC(=O)C2CCC(=O)N(Cc3cccc(F)c3)C2)cc1 (centres unmarked),-22%
20,COc1ccc([C@H]2CC(=O)C=C(c3ccc(C)cc3)C2)cc1,7.36%
21,O=C1CCCC2C3CCCN4CCCC(CN12)C34 (centres unmarked),14.6%
22,O=C(CC1C(=O)NCCN1Cc1cccc(Oc2ccccc2)c1)NCCc1ccncc1 (centres unmarked),-2.6%
23,Cc1ccc(N/C=C2\C(=O)N(c3ccc(F)cc3F)C(c3cccnc3)S2(=O)=O)cc1 (centres unmarked),6.43%
